Among the data in PubChem BioAssay (NCI) are TGI and GI50 values, retold here.

Several values for one entry are separate records, joined by “and”; a condition that tells them apart may be missing. Equal values may be shown once.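 Test compounds were applied to cells in 96-well plates for 48 hours at 5 doses. Abbreviation: GI50, concentration required for 50% inhibition of growth. Definition used: TGI = concentration required for complete inhibition of growth.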 Bridge positions count the residues as written; N and C are the ends. Peptide text beside a SMILES is read from it.

The test system of the assay is NCI-H322M lung. Briefly: NCI anticancer screen, dose series, 48 h.

`O=C(O)c1ccc(Nc2nc3ccc(C(F)(F)F)cc3nc2-c2ccccc2)cc1` gave a TGI greater than 100 µM.
On to `N#Cc1ccc(O)c(C2=NCC(c3ccc(-c4ccccc4)cc3)O2)c1` (centres undefined), for which the GI50 was 1.06 µM and the TGI worked out at 19.2 µM.
Consider `CCOC(=O)c1c(Br)c(-c2ccc([N+](=O)[O-])cc2)c(Br)n1C`, for which the TGI is greater than 10 µM.
Same read-out and setting: the same measure for `CCCCCCCCCCCCCCCCCC(=O)NCC(COP(=O)([O-])OCC[N+](C)(C)C)OCC` (centres undefined): 33.4 µM.
With `COc1ccc(C2CC(c3ccc4ccccc4c3)=NN2c2nc(O)c(C3=c4cc(Cl)ccc4=NC3=O)s2)cc1` (centres undefined), the GI50 was 0.029 µM and < 0.005 µM.
For the compound `CC(C)NC(=O)OCc1c(COC(=O)NC(C)C)c(-c2cc[n+](COC(=O)Cc3ccccc3)cc2)n2c1CCC2`, the TGI was greater than 100 µM.
As for `CN1CCN(C(=O)[C@@]2(C)CC[C@]3(C)CC[C@]4(C)C(=CC[C@@H]5[C@@]6(C)CC[C@H](OC(=O)c7cccnc7)C(C)(C)[C@@H]6CC[C@]54C)[C@@H]3C2)CC1`, the GI50 was 2.21 µM and the TGI was determined as 5.16 µM.
`CCC(C)C1NC(=O)C(CC(C)C)NC(=O)C(C(C)C)NC(=O)C2CSSCC(NC1=O)C(=O)N2` (centres undefined) (cyclo(CCVLI); disulfide 1-2; configuration not given here) came in with a TGI of 0.303 µM.
As to `Cn1cc(-c2csc(-c3cn(CCCN4CCCCC4)c4ccc(Br)cc34)n2)c2cccnc21`, the GI50 was 1.63 µM and the TGI is 3.11 µM.
In the case of `CC[C@H](C)[C@H](NC(=O)[C@H]1CCCCN1C)C(=O)N(C)[C@H](C[C@@H](OC(C)=O)c1nc(C(=O)NC23C4C5C2C2C3C4C52C(=O)OC)cs1)C(C)C` (some centres undefined), the GI50 is 0.00527 µM and 0.0116 µM; the TGI is greater than 25 µM.
`O=c1[nH]nc(-c2ccccc2)n1-n1cccc1` registered a TGI greater than 100 µM.
With `COc1cc2c(cc1OC)-c1cc3cc(OC)c(OC)cc3c(C)[n+]1CC2` (tested in a mixture with another compound), the TGI was greater than 100 µM.
`CCc1c2c(nc3ccc(OC(=O)OCc4ccc(B5OC(C)(C)C(C)(C)O5)cc4)cc13)-c1cc3c(c(=O)n1C2)COC(=O)[C@]3(O)CC`: the GI50 is 0.0506 µM and the TGI amounted to 5.14 µM.
`Cc1cc(N(CCC#N)CCC#N)ccc1/C=C(\N=[N+]=[N-])C(=O)NC(=O)COc1ccccc1` came in with a TGI greater than 100 µM.
In the case of `Cc1cnc(-c2ccc(-c3ccc(NC(=O)Nc4cccc(C(F)(F)F)c4)cc3F)c3c2C(=O)NC3)[nH]1`, the GI50 is 26.5 µM and the TGI was greater than 100 µM.
With `CN(CCc1ccccn1)/[N+]([O-])=N/O` (tested in a mixture with another compound), the TGI was greater than 100 µM.
The same measure, in the same setting: then `O=C(O)CCC1(CCC(=O)O)CCCCCCCCC(CCC(=O)O)(CCC(=O)O)C(=O)C1=O`, with greater than 100 µM; and `CSC(=NC(=O)c1ccccc1)SCCSC(=NC(=O)c1ccccc1)SC`, with greater than 100 µM; and `CCOC(=O)C(C(=O)OCC)S(C)(=O)=O`, with greater than 100 µM.
Turning to `Cc1c(C(=O)/C=C/c2ccc(Cl)cc2)nnn1-c1ccnc2c(C(F)(F)F)cccc12`, the GI50 is 37.4 µM and the TGI was greater than 100 µM.
As for `COc1c(-c2ccc(F)cc2)oc2c(CC(=O)O)cccc2c1=O`, the TGI is greater than 100 µM.
On the same count and under the same terms, the same measure for `CC(=O)OC1CC2C(=O)CC1(C)C2(C)C` (centres undefined): greater than 100 µM.
As to `O=c1oc2ccc(I)cc2c(=O)n1-c1ccc(I)cc1F`, the GI50 is 0.365 µM and the TGI turned out to be 24.1 µM.
Regarding `O=C1CS(=O)c2ccccc2N1` (centres undefined), the TGI is greater than 100 µM.
Still for that read-out and setting: then `Nc1nc(N)c(CCCCc2ccccc2)c(/C=C/c2ccc([N+](=O)[O-])cc2)n1`, with 30.3 µM; and `O=C(Cn1c2ccc(Br)cc2c2nc3ccccc3nc21)N1CCOCC1`, with greater than 100 µM; and `Cc1nc2c(n1Cc1ccc(F)cc1)C(=O)c1ccccc1C2=O`, with greater than 100 µM.
Same read-out and setting: then `C/C(CC(=O)Nc1cccc([N+](=O)[O-])c1)=N/NC(N)=S`, with greater than 100 µM; and `O=C(O)c1ccccc1/C=N\N(CCO)C1=NCCN1`, with greater than 100 µM.
For the compound `CN(C)c1ccc2cc3c(cc2c1)Oc1ccccc1N3.[Cl][Zn][Cl]`, the GI50 was 13.7 µM and the TGI came to 27.2 µM.
